The list shows a part of the results. At the low end of the ranking, values are background and their order means little.

The target of the test is GST-SBP-SLBP (stem-loop binding protein) (UniProt Q14493). In words: targeted RNA Bind-n-Seq.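 Further: DESeq read counts versus GST-SBP nonspecific binding control pulldown.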 The following applies: RBNS binding buffer: 25 mM Tris pH 7.5, 150 mM KCl, 3 mM MgCl2, 0.1% Tween, 0.5 mg/mL BSA, 1 mM DTT; 27 nM protein, 750 pM RNA pool; temperature not stated; high values mean tight binding.
Consider “GGUCACGUCUCAAUCAACUCUAUAGAGGGGGGGAAAACCCCUUUGCCCUCAAACUCAACAGCUCGCAGUCAAG”, for which the binding signal (log2 fold change) was -0.177.

“GGUCACGUCUCAAUCAACUCUAAGGAGGGGGGGAAAACCCCUUUACCCUCACACUCAACAGCUCGCAGUCAAG”: the binding signal (log2 fold change) is 0.396. As for “GGUCACGUCUCAAUCAACUCUUCAGAGGGGGGGAAAACCCCUUUGCCCUCACAUUCAACAGCUCGCAGUCAAG”, the figure is -0.0405; as for “GGUCACGUCUCAAUCAACUCUUCCUCCAGGGAAACCCCUGGUAUUCUCAACAGCUCGCAGUCAAG”, -0.118; as for “GGUCACGUCUCAAUCAACUCUUUCUCAGGAGUUUUCUCCUGUUAACUCAACAGCUCGCAGUCAAG”, 0.0478.

Turning to “GGUCACGUCUCAAUCAACUCAUUUCCCAGGGAAAACCCUGGCUAUUUCAACAGCUCGCAGUCAAG”, the binding signal (log2 fold change) stood at 0.135. The value for “GGUCACGUCUCAAUCAACUCAACUUCAGGAGUUUCCUCCUGCUAUCUCAACAGCUCGCAGUCAAG” was 0.103. The value for “GGUCACGUCUCAAUCAACUCAUCUCCCAGGGAAAUCCCUGGUAAAUUCAACAGCUCGCAGUCAAG” was 0.0544; that for “GGUCACGUCUCAAUCAACUCUUCCUCAGGAGUUUACUCCUGCAAUUUCAACAGCUCGCAGUCAAG” was -0.219.

In the case of “GGUCACGUCUCAAUCAACUCAUUCCCCAGGGAAAGCCCUGGCAAUUUCAACAGCUCGCAGUCAAG”, the binding signal (log2 fold change) was -0.015. Consider “GGUCACGUCUCAAUCAACUCAAUCUCAGGAGUUUCCUCCUGCAUAUUCAACAGCUCGCAGUCAAG”, for which the binding signal (log2 fold change) stood at 0.134. The value for “GGUCACGUCUCAAUCAACUCUCUCGAGGGGGGGAAAACCCCUUUGCCCUCAUUAUCAACAGCUCGCAGUCAAG” was 0.232.

For the sequence “GGUCACGUCUCAAUCAACUCAUCUUCCAGGGAAAGCCCUGGCUAUUUCAACAGCUCGCAGUCAAG”, the binding signal (log2 fold change) is -0.0644. The value for “GGUCACGUCUCAAUCAACUCCUAAGAGGGGGGGAAAACCCCUUUGCCCUCAUAUUCAACAGCUCGCAGUCAAG” was -0.0961.

On to “GGUCACGUCUCAAUCAACUCUUUCUCCAGGGAAACCCCUGGCAAUCUCAACAGCUCGCAGUCAAG”, for which the binding signal (log2 fold change) came to 0.0706. As for “GGUCACGUCUCAAUCAACUCAUUCUCAGGAGUUUCCUCCUGCUAAUUCAACAGCUCGCAGUCAAG”, the figure is 0.0579; as for “GGUCACGUCUCAAUCAACUCAUUUUCAGGAGUUUUCUCCUGUAUUCUCAACAGCUCGCAGUCAAG”, -0.0182; as for “GGUCACGUCUCAAUCAACUCUUCUUCCAGGGAAAUCCCUGGUAUAUUCAACAGCUCGCAGUCAAG”, -0.113.

For the sequence “GGUCACGUCUCAAUCAACUCACAAGAGGGGGGGAAAACCCCUUUACCCUCAUCAUCAACAGCUCGCAGUCAAG”, the binding signal (log2 fold change) was -0.0139. The value for “GGUCACGUCUCAAUCAACUCUUCCUCCAGGGAAACCCCUGGUUUUCUCAACAGCUCGCAGUCAAG” was -0.241; that for “GGUCACGUCUCAAUCAACUCUUCCCCAGGAGUUUUCUCCUGCAAUGUCAACAGCUCGCAGUCAAG” was 0.0332. As for “GGUCACGUCUCAAUCAACUCAUCCUCAGGAGUUUCCUCCUGUUUAGUCAACAGCUCGCAGUCAAG”, the binding signal (log2 fold change) stood at 0.0674. The value for “GGUCACGUCUCAAUCAACUCAUCUUCCAGGGAAAGCCCUGGUAUUUUCAACAGCUCGCAGUCAAG” was -0.0279.

“GGUCACGUCUCAAUCAACUCUAAAGAGGGGGGGAAAACCCCUUUACCCUCAAUCUCAACAGCUCGCAGUCAAG”: the binding signal (log2 fold change) is 0.253.

On to “GGUCACGUCUCAAUCAACUCUUUUUCAGGAGUUUUCUCCUGUAAUUUCAACAGCUCGCAGUCAAG”, for which the binding signal (log2 fold change) is 0.112. In the case of “GGUCACGUCUCAAUCAACUCAUUCUCCAGGGAAAGCCCUGGCUAACUCAACAGCUCGCAGUCAAG”, the binding signal (log2 fold change) is -0.267. The value for “GGUCACGUCUCAAUCAACUCAGUCCCCAGGGAAAGCCCUGGUAUUUUCAACAGCUCGCAGUCAAG” was -0.098; that for “GGUCACGUCUCAAUCAACUCAAUUUCCAGGGAAAACCCUGGUUUACUCAACAGCUCGCAGUCAAG” was 0.148.

On to “GGUCACGUCUCAAUCAACUCUCCCGAGGGGGGGAAAACCCCUUUGCCCUCAAAAUCAACAGCUCGCAGUCAAG”, for which the binding signal (log2 fold change) turned out to be 0.0406. The value for “GGUCACGUCUCAAUCAACUCAACUCCCAGGGAAAUCCCUGGCUAAUUCAACAGCUCGCAGUCAAG” was -0.141. The value for “GGUCACGUCUCAAUCAACUCUAUUUCCAGGGAAAUCCCUGGCUUAUUCAACAGCUCGCAGUCAAG” was 0.488; that for “GGUCACGUCUCAAUCAACUCUACUUCCAGGGAAAACCCUGGUAUACUCAACAGCUCGCAGUCAAG” was 0.0356; that for “GGUCACGUCUCAAUCAACUCAAUCUCCAGGGAAAUCCCUGGUUAACUCAACAGCUCGCAGUCAAG” was -0.285. In the case of “GGUCACGUCUCAAUCAACUCAAAAGAGGGGGGGAAAACCCCUUUACCCUCAAUUUCAACAGCUCGCAGUCAAG”, the binding signal (log2 fold change) is 0.263.

For the sequence “GGUCACGUCUCAAUCAACUCAAUCCCCAGGGAAAACCCUGGUAAAUUCAACAGCUCGCAGUCAAG”, the binding signal (log2 fold change) was -0.251.

Take “GGUCACGUCUCAAUCAACUCACUCGAGGGGGGGAAAACCCCUUUACCCUCAUAUUCAACAGCUCGCAGUCAAG”: the binding signal (log2 fold change) is -0.0297. As for “GGUCACGUCUCAAUCAACUCAAUCUCAGGAGUUUUCUCCUGUUUUCUCAACAGCUCGCAGUCAAG”, the figure is 0.0671; as for “GGUCACGUCUCAAUCAACUCAUCUUCAGGAGUUUCCUCCUGUUAAUUCAACAGCUCGCAGUCAAG”, -0.0664. As for “GGUCACGUCUCAAUCAACUCUUCCUCCAGGGAAAUCCCUGGUUUACUCAACAGCUCGCAGUCAAG”, the figure is -0.052; as for “GGUCACGUCUCAAUCAACUCAUUUCCAGGAGUUUGCUCCUGCUAUUUCAACAGCUCGCAGUCAAG”, 0.0582; as for “GGUCACGUCUCAAUCAACUCUUUUUCCAGGGAAAUCCCUGGUUUACUCAACAGCUCGCAGUCAAG”, 0.0958.

Consider “GGUCACGUCUCAAUCAACUCUAUUUCCAGGGAAACCCCUGGCUUAUUCAACAGCUCGCAGUCAAG”, for which the binding signal (log2 fold change) is 0.0519.

For “GGUCACGUCUCAAUCAACUCAAUCUCAGGAGUUUCCUCCUGCUUACUCAACAGCUCGCAGUCAAG”, the binding signal (log2 fold change) is -0.0736. The value for “GGUCACGUCUCAAUCAACUCCAACGAGGGGGGGAAAACCCCUUUACCCUCACUUUCAACAGCUCGCAGUCAAG” was 0.215. Consider “GGUCACGUCUCAAUCAACUCAAUUUCCAGGGAAAGCCCUGGUUUUUUCAACAGCUCGCAGUCAAG”, for which the binding signal (log2 fold change) is -0.0813.

As to “GGUCACGUCUCAAUCAACUCAAUCCCCAGGGAAAGCCCUGGCAUACUCAACAGCUCGCAGUCAAG”, the binding signal (log2 fold change) was 0.106. As for “GGUCACGUCUCAAUCAACUCUAGUCCCAGGGAAAUCCCUGGCAAUUUCAACAGCUCGCAGUCAAG”, the figure is -0.236.
